Source: PubChem BioAssay AID2546 (National Center for Advancing Translational Sciences (NCATS), 2010)
Hit rate of the full screen: of about 310,000 compounds, about 11,000 (3.5%) were called active. This list was built around the results that the source calls inconclusive (neither active nor inactive); the mix of calls is not that of the screen. Calls come from the whole dose curve; as a rule, active = well fitted inhibition curve with a large enough effect; inconclusive = small, poorly fitted or top-dose-only effect, or effect the other way; inactive = flat fitted curve, though single readings scatter. No potency is given beside an inconclusive call; the fits are too rough.

assay: VP16 counterscreen qHTS for inhibitors of ROR gamma transcriptional activity; details: Drosophila S2 Gal4-VP16 UAS-luciferase, luminescence, 20 h; series mostly up to 53.6 µM;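 note: Gal4-VP16 expression switched on by copper sulfate through the metallothionein promoter; nearly all actives have a fitted effect of over 50% in size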
Potency is the fitted concentration of half-maximal effect; tags give direction and shape of the fitted curve.

Q: For `CC(C)(C)c1ccc(S(=O)(=O)N2CCCCC2)cc1`, which Potency is on record?
A: inactive

Q: Which Potency does the source give for `CCOc1ccc(S(=O)(=O)n2cnc3cc(C)c(C)cc32)cc1` here?
A: inconclusive [inhibitor, single point]

Q: For `O=C(Nn1cc(C(=O)Nc2ccccc2F)c2ccccc2c1=O)c1cnccn1`, which Potency is on record?
A: inconclusive [inhibitor, partial curve]

Q: Which Potency does the source give for `Cc1ccnn1CC(=O)N/N=C/c1cn[nH]c1-c1ccc(F)cc1` here?
A: inconclusive [inhibitor, single point]

Q: For `CC(NC(=S)NC1CCC(C(C)(C)C)CC1)c1ccccc1` (centres undefined), which Potency is on record?
A: active: 2.82 µM

Q: Which Potency does the source give for `CCCn1c(NC(=O)c2ccc(Cl)c(S(=O)(=O)N3CCCC3)c2)nc2ccccc21` here?
A: active: 3.55 µM

Q: With `Nc1nc2ccc([N+](=O)[O-])c(N)c2s1` as the compound, how does the Potency read?
A: inactive

Q: For `CCCN1CNC(=S)N(CC2CCCO2)C1` (centres undefined), which Potency is on record?
A: inconclusive [inhibitor, single point]

Q: For `O=C(Nc1ccc(N2CCN(C(=O)c3cccs3)CC2)cc1)c1cccnc1`, which Potency is on record?
A: inactive

Q: Which Potency does the source give for `Nc1nc(Cl)cc(N2CCC(c3cc(-c4ccc(Cl)cc4Cl)n[nH]3)CC2)n1` here?
A: inconclusive [inhibitor, single point]

Q: For `COc1cccc(C(=O)COC(=O)c2cccs2)c1`, which Potency is on record?
A: inconclusive [activator, single point]

Q: Which Potency does the source give for `O=C(c1ccc(C(F)(F)F)n(Cc2ccc(Cl)cc2)c1=O)N1CCOCC1` here?
A: inactive

Q: Which Potency does the source give for `CCN(CC)S(=O)(=O)c1cccc(C(=O)Nc2ccc(Cl)cn2)c1` here?
A: inconclusive [inhibitor, single point]

Q: Which Potency does the source give for `Cc1nc(N2CCN(Cc3ccccc3)CC2)nc2c1CCC2` here?
A: inconclusive [activator, single point]

Q: For `CCOC(=O)C1=C(C)NC(=S)NC1/C=C/c1ccccc1` (centres undefined), which Potency is on record?
A: active: 2 µM

Q: With `CC(C)(C)c1cc[n+](C2=C([O-])c3ccccc3C(=O)/C2=N\S(=O)(=O)c2ccccc2)cc1` as the compound, how does the Potency read?
A: active: 6.31 µM

Q: With `CC(C)(C)c1ccc(OCC(=O)N/N=C/c2ccsc2)cc1` as the compound, how does the Potency read?
A: inconclusive [inhibitor, single point]

Q: For `COC(=O)C1=C(C)C(c2ccc(OC)cc2)NC(=O)N1` (centres undefined), which Potency is on record?
A: inactive

Q: Which Potency does the source give for `Cc1ccc(Cn2cnc3ccccc32)cc1` here?
A: inconclusive [inhibitor, single point]

Q: With `CC(C)C[C@H](NC(=O)c1nc[nH]c1C(=O)NCC(=O)OCc1ccccc1)C(=O)OC(C)(C)C` as the compound, how does the Potency read?
A: inconclusive [inhibitor, single point]

Q: For `Cc1ccc(CN2CC(C(=O)Nc3cccc(S(=O)(=O)N4CCCCC4)c3)CC2=O)cc1` (centres undefined), which Potency is on record?
A: inconclusive [inhibitor, single point]

Q: Which Potency does the source give for `S=C(NCc1ccco1)N1CCN(C(c2ccccc2)c2ccccc2)CC1` here?
A: inconclusive [inhibitor, single point]

Q: With `COCc1nnc(NC(=O)c2ccc(S(=O)(=O)N(C)c3ccccc3)cc2)o1` as the compound, how does the Potency read?
A: active: 2.51 µM

Q: Which Potency does the source give for `Cc1ccc(SCCC(=O)OC(C(=O)NC(N)=O)C(C)C)cc1` (centres undefined) here?
A: inconclusive [inhibitor, single point]

Q: With `CCOC(=O)N1CCc2c(sc3c2C(=O)NC(c2ccccc2)N3)C1` (centres undefined) as the compound, how does the Potency read?
A: inactive

Q: For `CC(=O)C1=C(O)C(=O)N(Cc2cccnc2)C1c1ccc(C(C)C)cc1` (centres undefined), which Potency is on record?
A: inconclusive [inhibitor, single point]

Q: With `N#Cc1c(C(F)(F)F)cc(-c2ccc(Cl)c(Cl)c2)nc1SCCN1CCOCC1` as the compound, how does the Potency read?
A: inactive

Q: With `O=C(Cn1ncc(Cl)c(Cl)c1=O)NCC1CCCCC1` as the compound, how does the Potency read?
A: inconclusive [inhibitor, single point]

Q: Which Potency does the source give for `O=C(NC1=NCCS1)C1COc2ccccc2O1` (centres undefined) here?
A: active: 4.47 µM

Q: With `COc1ccc(N=Nc2nc3cc(Br)c(Br)cc3n2C)c(OC)c1` as the compound, how does the Potency read?
A: inconclusive [inhibitor, single point]

Q: Which Potency does the source give for `COc1ccc(N2Cc3ccccc3C2=NC(=O)c2cccc([N+](=O)[O-])c2)cc1` here?
A: inconclusive [activator, partial curve]

Q: With `Cc1ccc(S(=O)(=O)NNC(=S)Nc2cccc(C)c2C)cc1` as the compound, how does the Potency read?
A: inconclusive [inhibitor, full curve]

Q: Which Potency does the source give for `Cn1c(=O)c2c(nc(NCCO)n2CCCc2ccccc2)n(C)c1=O` here?
A: inconclusive [inhibitor, single point]

Q: With `O=C(C1CC1)N1N=C(c2ccccc2)CC1(O)C(F)(F)C(F)(F)F` (centres undefined) as the compound, how does the Potency read?
A: inconclusive [inhibitor, single point]

Q: Which Potency does the source give for `N#Cc1nc(-c2cccs2)oc1NCc1ccccc1Cl` here?
A: inconclusive [inhibitor, partial curve, poor fit]

Q: For `CS(=O)(=O)N1CCN(c2ccc(NC(=O)c3ccc([N+](=O)[O-])o3)cc2)CC1`, which Potency is on record?
A: inconclusive [activator, full curve]

Q: With `COc1cccc(Nc2ncc(C#N)c(N)n2)c1` as the compound, how does the Potency read?
A: inactive

Q: With `COc1ccc(OC)c(C2C(C(=O)c3cc4ccccc4o3)=C(O)C(=O)N2c2cc(C)on2)c1` (centres undefined) as the compound, how does the Potency read?
A: inactive

Q: Which Potency does the source give for `CCC(c1nnc(SCC(=O)Nc2cc(Cl)ccc2C#N)n1C1CCCCC1)N(C)C` (centres undefined) here?
A: inconclusive [inhibitor, single point]

Q: Which Potency does the source give for `COc1ccc(/C=N\Nc2ccccc2[N+](=O)[O-])c(C(=O)O)c1OC` here?
A: inconclusive [activator, single point]

Q: Which Potency does the source give for `CCCCNC(=O)/C(C#N)=C/c1ccc(C(=O)OC)cc1` here?
A: inactive

Q: For `Cc1cccc(C)c1OCc1cc(C(=O)N(Cc2c(C)nn(C)c2C)C2CC2)no1`, which Potency is on record?
A: inconclusive [inhibitor, single point]

Q: Which Potency does the source give for `O=C(NCCc1ccccc1)NC1CCCCC1` here?
A: inconclusive [inhibitor, partial curve]

Q: Which Potency does the source give for `COc1cccc(CN2CC(C(=O)NCC3CCOCC3)CCC2=O)c1` (centres undefined) here?
A: inactive

Q: Which Potency does the source give for `CCOc1ccc(/C=N/n2c(-c3ccccc3)n[nH]c2=S)cc1` here?
A: inconclusive [inhibitor, partial curve]

Q: With `CC(C)(C)c1nc(SCC(=O)N2CC(=O)Nc3ccccc32)c2ccccc2n1` as the compound, how does the Potency read?
A: inactive

Q: With `O=C(CN(c1ccc(Cl)cc1)S(=O)(=O)c1ccccc1)N/N=C/c1ccco1` as the compound, how does the Potency read?
A: inconclusive [activator, single point]

Q: Which Potency does the source give for `C=C(C)CNC(=S)Nc1sc2c(c1C(=O)OCC)CC(C)(C)OC2` here?
A: active: 1.41 µM

Q: With `Cc1ccc(C(=O)Nc2nnc(NC(=S)Nc3ccccc3)s2)cc1` as the compound, how does the Potency read?
A: active: 1.12 µM

Q: With `CCO/C(C)=C1\N=C(c2ccc(Cl)cc2)OC1=O` as the compound, how does the Potency read?
A: inactive

Q: With `CN=C1S/C(=C\c2ccc(N3CCCC3)c(F)c2)C(=O)N1C` as the compound, how does the Potency read?
A: inactive

Q: With `CCc1cc2c(nc1CC)CCN(CC/C(C)=N/O[C@@H](C)c1cc(-c3c(C)cc(C)cc3C)no1)C2` as the compound, how does the Potency read?
A: inconclusive [inhibitor, single point]

Q: Which Potency does the source give for `O=c1c2c([N+](=O)[O-])cc([N+](=O)[O-])cc2sn1Cc1ccccc1` here?
A: active: 4.47 µM

Q: Which Potency does the source give for `COc1ccccc1NC(=O)CSc1nc2sc(C)c(C)c2c(=O)n1C` here?
A: inconclusive [inhibitor, single point]

Q: Which Potency does the source give for `Cc1ccc(C)c(OCC(=O)Nc2nc3ccc([N+](=O)[O-])cc3s2)c1C` here?
A: inconclusive [inhibitor, single point]

Q: For `CN(C1CCCCC1)S(=O)(=O)c1ccc2[nH]c(=O)oc2c1`, which Potency is on record?
A: inconclusive [inhibitor, single point]

Q: With `CN(C)S(=O)(=O)c1cc(NC(=O)CNCCN2CCOCC2)ccc1Cl` as the compound, how does the Potency read?
A: inactive

Q: Which Potency does the source give for `O=C(Nc1ccc2nn(-c3ccccc3)nc2c1)c1ccc2c(c1)OCO2` here?
A: inconclusive [inhibitor, single point]

Q: With `Cc1cc2nc(CCl)cc(=O)n2[nH]1` as the compound, how does the Potency read?
A: inactive

Q: Which Potency does the source give for `O=C(NCc1ccccc1)c1cc2ccccc2o1` here?
A: inconclusive [inhibitor, single point]

Q: With `c1ccc2c(c1)ncn2Cc1nnc2sc(-c3ccc4c(c3)OCO4)nn12` as the compound, how does the Potency read?
A: inactive

Q: For `O=C(NCCCc1ccccc1)C1CCC(=O)N(CCc2ccc(Cl)cc2)C1` (centres undefined), which Potency is on record?
A: inconclusive [activator, single point]

Q: With `O=c1c(-c2cccs2)nc2cnc(N3CCNCC3)nc2n1C1CC1` as the compound, how does the Potency read?
A: inconclusive [inhibitor, single point]

Q: For `O=C(c1ccc(Cl)c(S(=O)(=O)N2CCOCC2)c1)N(c1ccccn1)C1CCCCC1`, which Potency is on record?
A: inactive

Q: For `Cc1ccnc(NC(=O)CCNS(=O)(=O)c2ccc(C)c(C)c2)c1`, which Potency is on record?
A: inconclusive [inhibitor, single point]

Q: Which Potency does the source give for `O=C1c2ccccc2C(=O)N1CCCc1nc2ccccc2c(=O)n1-c1cccnc1` here?
A: inconclusive [inhibitor, partial curve]

Q: With `CCOc1cc(CNCC(O)c2ccccc2)cc(Cl)c1OC` (centres undefined) as the compound, how does the Potency read?
A: inactive

Q: For `COc1ccc(OC)c(C(=O)/C=C/c2cccnc2)c1`, which Potency is on record?
A: active: 2.82 µM

Q: With `Cc1onc(-c2ccccc2)c1C(=O)N/N=C/c1cn(C)c2ccccc12` as the compound, how does the Potency read?
A: inconclusive [inhibitor, partial curve]

Q: Which Potency does the source give for `c1ccc(CNc2nnnn2-c2ccccc2)cc1` here?
A: inactive

Q: For `COc1cccc(NC(=O)C(=O)NCCc2ccc(F)cc2)c1`, which Potency is on record?
A: inconclusive [activator, partial curve]

Q: Which Potency does the source give for `O=C(c1ccccc1O)N1N=C(c2ccccc2)CC1(O)C(F)(F)F` (centres undefined) here?
A: inconclusive [inhibitor, single point]

Q: Which Potency does the source give for `Cc1cccn2c1nc(=S)n2C(=O)c1ccco1` here?
A: inactive

Q: Which Potency does the source give for `COc1ccc2cc(S(=O)(=O)NCc3cccnc3)ccc2c1` here?
A: inconclusive [inhibitor, single point]
